Data published in PubChem BioAssay AID2147 (National Center for Advancing Translational Sciences (NCATS), 2009).
“And” between values parts separate entries of the source, which are not always exact repeats. Equal values may be shown once. Among all 230,000 compounds or so, about 3,600 (1.6%) were called active. The inconclusive results got no clear call from the source; some entries with a clear call stand among them for comparison. Calls follow the shape of the dose curve; as a rule, active = well fitted inhibition curve with a large enough effect (not every such curve was filed as active); inconclusive = small, poorly fitted or top-dose-only effect, or another doubt; inactive = no such curve, though single readings can be large or run the other way. Where the call is inconclusive, the potency comes from a doubtful curve fit.

target: Lysine-specific demethylase 4E (Homo sapiens) (UniProt B2RXH2); assay: qHTS Assay for Inhibitors of Human Jumonji Domain Containing 2E (JMJD2E); conditions: JMJD2E catalytic domain, FDH-coupled NADH fluorescence (FDH is formaldehyde dehydrogenase); series mostly up to 57.1 µM
Sequence of UniProt B2RXH2 (B2RXH2 whole entry, looked up, the tested form may be a part): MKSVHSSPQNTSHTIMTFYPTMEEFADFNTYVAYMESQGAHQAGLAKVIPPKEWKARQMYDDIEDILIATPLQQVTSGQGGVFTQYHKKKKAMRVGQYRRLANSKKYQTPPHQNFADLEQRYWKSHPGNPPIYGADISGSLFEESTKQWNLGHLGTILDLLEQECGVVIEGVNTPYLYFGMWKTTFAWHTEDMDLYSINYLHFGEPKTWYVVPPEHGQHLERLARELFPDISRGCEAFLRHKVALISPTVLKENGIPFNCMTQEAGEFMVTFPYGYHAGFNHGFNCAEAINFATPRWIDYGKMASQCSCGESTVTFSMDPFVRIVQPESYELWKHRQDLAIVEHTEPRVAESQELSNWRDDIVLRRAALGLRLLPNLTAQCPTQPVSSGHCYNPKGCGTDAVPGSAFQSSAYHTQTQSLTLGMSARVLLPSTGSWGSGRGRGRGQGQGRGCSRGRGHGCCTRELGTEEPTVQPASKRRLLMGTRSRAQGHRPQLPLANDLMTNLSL
Also: nearly all actives have a fitted effect of over 50% in size.
Potency is read from the fitted curve at half-maximal effect; tags tell the direction and shape of the fitted curve.

SMILES	Potency
Cc1nn(CCC(=O)NNC(=S)Nc2ccc([N+](=O)[O-])cc2)c(C)c1[N+](=O)[O-]	inconclusive: 12.6 µM [inhibitor, partial curve]
CCN1CCCC1Cn1c(-c2ccccc2)nc2c(N3CCOCC3)nc(C)nc21 (stereo unspecified)	inconclusive: 31.6 µM [inhibitor, partial curve]
O=C(CN(Cc1ccco1)C(=O)c1cc(=O)[nH]c2ccccc12)Nc1ccccc1C(F)(F)F	inconclusive: 25.1 µM [inhibitor, single point]
CCOC(=O)Cn1nc(-c2ccc(C)cc2)ccc1=O	inconclusive: 35.5 µM [inhibitor, single point]
CCOC(=O)c1cc2ccc(OC)cc2oc1=O	inconclusive: 28.2 µM [inhibitor, partial curve]
O=c1[nH]c(=O)n(Cc2ccco2)c2c1C(C(F)(F)F)(C(F)(F)F)N=C(CCC1CCCCC1)N2	inconclusive: 31.6 µM [inhibitor, partial curve]
O=C(O)C1=C[C@@H](c2ccccc2)C[C@@H](OCc2ccc(CO)cc2)O1	inconclusive: 31.6 µM [inhibitor, single point]
COc1ccccc1N1CCN(C(=O)COc2ccc(S(=O)(=O)NC(C)(C)C)cc2)CC1	inactive
COC(=O)CSc1nnc(-c2sc3ccccc3c2Cl)o1	inconclusive: 39.8 µM [inhibitor, single point]
COc1ccc(-c2ccc(-c3noc(-c4cccs4)n3)c(OC)n2)cc1	inconclusive: 28.2 µM [inhibitor, partial curve]
NS(=O)(=O)c1ccc(N/N=C/c2ccc(O)cc2O)c([N+](=O)[O-])c1	inactive
CNCCOc1ccccc1-c1ccccc1	inconclusive: 39.8 µM [inhibitor, single point]
Cc1cccc(-n2ncc3c(NCCc4ccc(S(N)(=O)=O)cc4)ncnc32)c1	inconclusive: 28.2 µM [inhibitor, single point]
COC(=O)[C@@]1(Cc2ccc(OC)cc2)[C@H]2c3cc(C(=O)N(C)C)n(Cc4ccc(C)o4)c3C[C@H]2CN1C(=O)c1ccccc1	inconclusive: 39.8 µM [inhibitor, single point]
CCCCOC(=O)c1ccc(NC(=O)C2CCCO2)cc1 (stereo unspecified)	inactive
CCOc1cc(/C=C(\C#N)C(=O)NCc2cccnc2)ccc1O	inactive
COc1ccc(-c2cnc3c(c2)CCC3(C#N)C#N)cc1	inconclusive: 35.5 µM [inhibitor, partial curve]
CCOC(=O)C1CCCN(Cc2cccc(Cl)c2)C1 (stereo unspecified)	inconclusive: 28.2 µM [inhibitor, single point]
COc1ccc(NC(=O)c2oc3ccccc3c2NC(=O)c2ccco2)c(OC)c1	inconclusive: 3.16 µM [inhibitor, partial curve]
Cn1cccc1CC(=O)NNC(=S)NC(=O)c1ccccc1Br	inactive
Cc1nnc(NC(=O)c2ccc(S(=O)(=O)N3CCc4ccccc4C3)cc2)o1	inconclusive: 39.8 µM [inhibitor, single point]

SMILES	Potency
Cc1ccc2nc(-c3ccc(NS(C)(=O)=O)cc3)cc(-c3ccccc3)c2c1	inconclusive: 11.2 µM [inhibitor, partial curve]
Cc1ccc(C2/C(=C(/O)c3ccc(Cl)cc3)C(=O)C(=O)N2CC2CCCO2)o1 (stereo unspecified)	inactive
COc1ccc(N2CCN(C(=O)CSc3ncccc3-c3nc4ccccc4[nH]3)CC2)cc1	inconclusive: 39.8 µM [inhibitor, single point]
O=[N+]([O-])C(=C1Nc2ccccc2N1)/C(Cl)=C(/Cl)Br	inconclusive: 39.8 µM [inhibitor, single point]
COC(=O)CCC(=O)OC1(C)C(=O)C2=CN(CC(C)C)C(c3ccc(OC)cc3)=CC2=C(Br)C1=O (stereo unspecified)	inconclusive: 11.2 µM [inhibitor, partial curve] and inconclusive: 8.91 µM [inhibitor, single point]
CC(C)CN1C(=O)c2ccc(NC(=O)c3cccs3)cc2C1=O	inconclusive: 25.1 µM [inhibitor, partial curve]
CCOC(=O)c1nn(-c2ccccc2)c(C#N)c1N	inconclusive: 31.6 µM [inhibitor, partial curve]
CCOc1ccc(Nc2nc3ccccc3n3cnnc23)cc1	inconclusive: 35.5 µM [inhibitor, single point]
CCN(CC)S(=O)(=O)c1ccc(N2CCCC2)c(NC(=O)c2ccccc2OC)c1	inconclusive: 39.8 µM [inhibitor, single point]
Cc1nnc(NC(=O)CSc2ccc(-c3cccnc3)nn2)s1	inactive
O=C(CCCN1C(=O)/C(=C/c2ccco2)SC1=S)Nc1ccccc1C(=O)O	inconclusive: 28.2 µM [inhibitor, single point]
COc1ccc2nc(NC(=O)CSc3nc4cccnc4n3C)sc2c1	inconclusive: 28.2 µM [inhibitor, partial curve]
COc1cccc(NC(=O)Cn2cc3c(n2)CCCCC3)c1	inactive
CC(O)[C@@H](O)[C@H]1CNc2nc(N)[nH]c(=O)c2N1 (stereo partly specified)	inconclusive: 28.2 µM [inhibitor, partial curve]
O=S(=O)([N-]c1nc2ccccc2nc1-n1cc[n+](Cc2ccccc2)c1)c1ccc(Cl)cc1	inconclusive: 3.16 µM [inhibitor, full curve]
CN(CCNC(=O)C1CCN(S(=O)(=O)c2cnc[nH]2)CC1)Cc1ccccc1	inconclusive: 31.6 µM [inhibitor, single point]
O=C(NCCc1ccc(Cl)cc1)C1CCN(c2cnccn2)CC1	inconclusive: 39.8 µM [inhibitor, single point]
Cc1ccsc1C(=O)N1CCCC(CCC(=O)NCc2ccc(F)c(F)c2)C1 (stereo unspecified)	inactive
Cc1cc(C)n(-c2nc3ccccc3[nH]c2=O)n1	inconclusive: 31.6 µM [inhibitor, partial curve]
O=C(Nc1ccc(S(=O)(=O)N2CCOCC2)cc1)c1ccc2c(c1)S(=O)(=O)c1ccccc1C2=O	inactive
